# The campaign covered roughly 310,000 compounds. About 14,000 (4.5%) showed an effect of 50% or more. Effects have a minus sign here. This is one part of the list.
# Target: human ether-à-go-go-related gene (hERG) potassium channel (human, UniProt Q12809)
# Experiment: primary screen, population patch clamp on CHO cells stably expressing hERG
# 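Further: peak tail current of the secondary pulse compared with the same well before compound.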
# human ether-à-go-go-related gene (hERG) potassium channel, sequence (Q12809 whole entry, looked up): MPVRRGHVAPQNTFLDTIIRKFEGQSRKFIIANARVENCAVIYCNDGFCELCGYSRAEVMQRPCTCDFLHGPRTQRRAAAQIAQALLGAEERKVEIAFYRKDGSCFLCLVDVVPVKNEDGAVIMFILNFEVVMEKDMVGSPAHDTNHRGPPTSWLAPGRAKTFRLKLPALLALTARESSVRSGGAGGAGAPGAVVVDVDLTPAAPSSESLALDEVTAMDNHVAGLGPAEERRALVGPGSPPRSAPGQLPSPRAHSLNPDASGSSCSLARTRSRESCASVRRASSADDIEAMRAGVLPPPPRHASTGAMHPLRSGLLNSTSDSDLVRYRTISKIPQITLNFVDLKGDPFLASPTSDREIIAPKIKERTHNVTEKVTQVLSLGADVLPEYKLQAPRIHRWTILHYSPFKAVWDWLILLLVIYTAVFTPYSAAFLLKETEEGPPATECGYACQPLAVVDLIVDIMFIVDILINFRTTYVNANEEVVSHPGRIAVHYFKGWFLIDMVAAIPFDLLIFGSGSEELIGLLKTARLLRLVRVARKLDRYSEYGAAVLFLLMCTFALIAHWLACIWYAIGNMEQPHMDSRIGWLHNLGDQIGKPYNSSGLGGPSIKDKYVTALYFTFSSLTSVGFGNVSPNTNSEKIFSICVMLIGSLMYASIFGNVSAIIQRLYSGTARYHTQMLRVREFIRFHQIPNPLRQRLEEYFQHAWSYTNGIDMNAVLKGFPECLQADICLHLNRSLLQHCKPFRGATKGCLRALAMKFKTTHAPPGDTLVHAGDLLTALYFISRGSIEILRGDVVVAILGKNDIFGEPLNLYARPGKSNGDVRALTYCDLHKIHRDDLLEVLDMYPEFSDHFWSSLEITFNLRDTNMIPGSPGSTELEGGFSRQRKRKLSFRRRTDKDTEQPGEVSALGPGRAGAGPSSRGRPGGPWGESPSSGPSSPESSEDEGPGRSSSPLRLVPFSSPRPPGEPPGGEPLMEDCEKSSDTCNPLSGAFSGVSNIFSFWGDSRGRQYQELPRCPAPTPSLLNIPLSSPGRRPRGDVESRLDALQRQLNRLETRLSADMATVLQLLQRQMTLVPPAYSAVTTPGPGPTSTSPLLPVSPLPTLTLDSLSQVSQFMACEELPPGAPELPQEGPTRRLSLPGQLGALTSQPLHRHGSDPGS
row,Compound,"hERG current change (%, negative = inhibition) at 10uM [%]"
1,Cc1ncc(CN2CCCC(C(=O)c3cccc(OC(C)C)c3)C2)s1 (centres unmarked),-18.9
2,CC(C)Sc1nnc(-c2ccc(S(=O)(=O)N3CCOCC3)cc2)n1C,18.7
3,CCOC(=O)NC(=O)c1cn(Nc2ccccc2C(F)(F)F)c(=O)[nH]c1=O,6.35
4,C/C(CC(=O)Nc1ccc(N(C)C)cc1)=N\NC(=O)c1ccc(Cl)cc1,-13.9
5,N#C/C(=C/Nc1ccccc1F)S(=O)(=O)c1ccc(Cl)cc1,26.8
6,COc1ccccc1C(=O)Nc1ccc(Br)cc1C,43.8
7,C=CCN(c1ccccc1)S(=O)(=O)c1cccc(C(=O)Nc2cc(C)ccn2)c1,-17.8
8,Cc1ccccc1-c1nc(CN2CCN(C(=O)c3ccco3)CC2)c(C)o1,-5.18
9,COc1ccc(OCc2cc(C(=O)NCCN3CCCc4ccccc43)no2)c(Cl)c1,-1.86
10,CCOC(=O)CN1C(=O)C(=O)N(Cc2ccccc2)C1=O,9.88
11,CC(=O)Nc1ccc(S(=O)(=O)CCC#N)cc1,0.121
12,O=C(c1ccccc1Cc1ccccc1)N1CCN(S(=O)(=O)c2ccccc2Br)CC1,0.908
13,COCCCn1c(=O)c2ccccc2n(Cc2ccc(C)cc2)c1=O,-4.82
14,COCC(=O)Nc1ccc(OCc2ccccc2)cc1,-8.22
15,COC(=O)NCCc1cc(OC)c(OC)cc1S(=O)(=O)N1CC(=O)Nc2ccccc21,12.6
16,COc1ccc(CCNC(=O)c2cc(-c3ccccc3)c(N3CCOCC3)s2)cc1OC,-13.3
17,CCOc1ccc2nc(Cl)c(CN(C(C)=O)C3CCCCC3)cc2c1,-0.442
18,COc1ccccc1NC(=O)COC(=O)c1ccc2c(c1)nc(C)n2-c1ccccc1,-5.86
19,Cc1ccc(-c2n[nH]c(=O)c3ccccc23)cc1N,5.75
20,CCC(C)[C@H](NC(=O)NCCCN1CCOCC1)C(=O)OC (some centres unmarked),12
21,CC1(C)CC(=O)C(C(=O)c2ccccc2)C(=O)C1,-4.2
22,O=C(/C=C/c1ccccc1)N1c2ccccc2Sc2ccc(C(F)(F)F)cc21,10.5

row,Compound,"hERG current change (%, negative = inhibition) at 10uM [%]"
1,Cc1cc(OC(C)C(=O)Nc2ccccc2C(=O)N2CCCC2)ccc1Cl (centres unmarked),-16.7
2,Cc1noc(C)c1CSc1ccccc1C(=O)N(C)CC(=O)Nc1cccc(F)c1,-7.17
3,Cn1cccc1Cc1nnc(SCC(=O)Nc2ccc(F)cc2)n1-c1ccc(F)cc1,-21.2
4,Cn1nnc(NC(=S)NC(=O)c2cccs2)n1,-0.112
5,COc1ccccc1CNC(=O)CN1CCC(n2cnc3cc(F)ccc32)CC1,-66
6,COc1ccc(Cc2nnc(NC(=O)Nc3ccccc3F)s2)cc1,10.2
7,CC(SC1=NCCS1)C(=O)Nc1nnc(-c2ccc(Cl)cc2)s1 (centres unmarked),6.53
8,COc1ccc(C(CC(=O)N2CCOCC2)c2c(OC)cc(OC)c3c(-c4ccccc4)cc(=O)oc23)cc1 (centres unmarked),12
9,CC(NC(=O)CN(C)CC(=O)Nc1cccc(F)c1)c1ccccc1 (centres unmarked),1.29
10,CCOc1ccc(C(=O)Nn2cnnc2)cc1,2.29
11,CCCCC(=O)NC(=S)Nc1ccc(NC(=O)C(C)C)c(OC)c1,21.2
12,COc1ccccc1Oc1nc(C)c(C(C)=O)cc1C#N,14.8
13,CCN(CC(=O)Nc1c(F)cccc1F)C(=O)CCN1C(=O)C2CC=CCC2C1=O (centres unmarked),9.67
14,O=[N+]([O-])c1ccc(N2CCC(O)CC2)nc1,2.54
15,CCc1ccc(NC(=S)N(Cc2ccccc2)Cc2ccccn2)cc1,-14.3
16,Cl.O=C(c1ccc(COc2ccccc2Cl)o1)N1CCN(Cc2ccc3c(c2)OCO3)CC1,-21.3
17,Cc1ccc(-n2ccnc2SCC(=O)O)c(C)c1,17.3
18,Fc1ccc(Cn2nnnc2CN2CCN(C3CCCC3)CC2)cc1,-49.1
19,Cc1ccc(-n2c(SCCN)nnc2-c2cccc(C)c2)cc1.O=C(O)C(=O)O,-38
20,O=C(CC(O)(c1ccccc1)C(F)(F)F)c1cccs1 (centres unmarked),-14.4
21,COCCCNc1nc(N)c([N+](=O)[O-])c(N2CCCCCC2)n1,14
22,Cc1nn(C(C)C)c(C)c1CN1CCCC(CCC(=O)NCc2ccccc2F)C1 (centres unmarked),0.286
